{
  "source": "the supplement of paper PMC9135407",
  "test_system": "primary human hepatic stellate cells (donor 1)",
  "assay": "scaled lipid accumulation score (0 = DMSO-like, 1 = nortriptyline-like); higher = stronger HSC inactivation (lipid re-accumulation), active = hit call of the paper",
  "settings": "48 h",
  "key": {"[1]": {"settings": "library stock concentration: 10 mM"}, "[2]": {"settings": "library stock concentration: 3.33 mM"}, "[3]": {"settings": "library stock concentration: 1 mM"}},
  "note": "Where “and” joins values, the source holds several entries; their conditions need not be identical. Identical values can stand only once. Counter-ions that a name gives are not always drawn. Hit rate of the full screen: of about 5,800 compounds, about 620 (11%) showed activity.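 The calls were made as follows: active = score above a cut-off or among the top three wells of a plate; in these data no inactive exceeds 0.85.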 This is a selection; strong and weak results do not stand in their true shares.",
  "data": [
    {"smiles": "COC(=O)C(N)Cc1ccc(Cl)cc1", "note": "(racemic) [DL-p-Chlorophenylalanine methyl ester hydrochloride]", "values": [
      {"measurement": "scaled lipid accumulation score", "setting": "[1]", "value": "inactive: ≤ 0"}
    ]},
    {"smiles": "O=c1c(O)c(-c2ccc(O)c(O)c2)oc2cc(O)cc(O)c12", "note": "[Quercetin dihydrate]", "values": [
      {"measurement": "scaled lipid accumulation score", "setting": "[1]", "value": "inactive: 0.021"}
    ]},
    {"smiles": "O=c1c(O)c(-c2ccc(O)c(O)c2)oc2cc(O)cc(O)c12", "note": "[Quercetin Dihydrate]", "values": [
      {"measurement": "scaled lipid accumulation score", "setting": "[2]", "value": "inactive: 0.003"},
      {"measurement": "scaled lipid accumulation score", "setting": "[1]", "value": "inactive: 0.012"}
    ]},
    {"smiles": "O=c1c(O)c(-c2ccc(O)c(O)c2)oc2cc(O)cc(O)c12", "note": "[Quercetine dihydrate]", "values": [
      {"measurement": "scaled lipid accumulation score", "value": "inactive: ≤ 0"}
    ]},
    {"smiles": "O=c1c(O)c(-c2ccc(O)c(O)c2)oc2cc(O)cc(O)c12", "note": "[Quercetin]", "values": [
      {"measurement": "scaled lipid accumulation score", "setting": "[3]", "value": "inactive: 0.019"},
      {"measurement": "scaled lipid accumulation score", "setting": "[2]", "value": "inactive: 0.017"},
      {"measurement": "scaled lipid accumulation score", "setting": "[1]", "value": "inactive: 0.007 and inactive: 0.079 and inactive: 0.097"}
    ]},
    {"smiles": "Cc1cnc(C(=O)O)c[n+]1[O-]", "note": "[Acipimox]", "values": [
      {"measurement": "scaled lipid accumulation score", "setting": "[2]", "value": "inactive: 0.043"},
      {"measurement": "scaled lipid accumulation score", "setting": "[1]", "value": "inactive: 0.023"},
      {"measurement": "scaled lipid accumulation score", "setting": "library stock concentration: 13 mM", "value": "inactive: ≤ 0"}
    ]},
    {"smiles": "CC(=O)Nc1cccc(O)c1", "note": "[Metacetamol]", "values": [
      {"measurement": "scaled lipid accumulation score", "setting": "[1]", "value": "inactive: ≤ 0"}
    ]},
    {"smiles": "O=C(c1cncc(Br)c1)N1CCC(N2CCCC2)CC1", "values": [
      {"measurement": "scaled lipid accumulation score", "setting": "library stock concentration: 80 uM", "value": "inactive: ≤ 0"},
      {"measurement": "scaled lipid accumulation score", "setting": "library stock concentration: 400 uM", "value": "inactive: ≤ 0"},
      {"measurement": "scaled lipid accumulation score", "setting": "library stock concentration: 2 mM", "value": "inactive: ≤ 0"},
      {"measurement": "scaled lipid accumulation score", "setting": "[2]", "value": "inactive: ≤ -0.009"},
      {"measurement": "scaled lipid accumulation score", "setting": "[1]", "value": "inactive: ≤ 0"}
    ]},
    {"smiles": "O=C(O)C1(C(=O)O)CCC1.[NH2-].[NH2-].[Pt+2]", "note": "[Carboplatin]", "values": [
      {"measurement": "scaled lipid accumulation score", "setting": "library stock concentration: 5.4 mM", "value": "inactive: ≤ 0"},
      {"measurement": "scaled lipid accumulation score", "setting": "library stock concentration: 5.9 mM", "value": "inactive: ≤ 0"},
      {"measurement": "scaled lipid accumulation score", "setting": "[1]", "value": "inactive: 0.058 and inactive: ≤ 0 and inactive: 0.006"}
    ]},
    {"smiles": "CN1CCN(S(=O)(=O)c2ccc(-c3cnc(N)c(C(=O)Nc4cccnc4)n3)cc2)CC1", "values": [
      {"measurement": "scaled lipid accumulation score", "setting": "[1]", "value": "active: 1.02"}
    ]},
    {"smiles": "CCOc1cc2ncc(C#N)c(Nc3ccc(F)c(Cl)c3)c2cc1NC(=O)C=CCN(C)C", "values": [
      {"measurement": "scaled lipid accumulation score", "setting": "[1]", "value": "active: 1.13"}
    ]},
    {"smiles": "CNCCC(Oc1ccc(C(F)(F)F)cc1)c1ccccc1.Cl", "note": "(centres undefined) [Fluoxetine hydrochloride]", "values": [
      {"measurement": "scaled lipid accumulation score", "setting": "[1]", "value": "active: 1.57"}
    ]},
    {"smiles": "COc1ccc2cccc(N3CCN(CCNC(=O)c4ccc(F)cc4)CC3)c2c1", "values": [
      {"measurement": "scaled lipid accumulation score", "setting": "[1]", "value": "inactive: 0.585"}
    ]},
    {"smiles": "CC(C)NC[C@@H](C(=O)N1CCN(c2ncnc3c2[C@H](C)C[C@H]3O)CC1)c1ccc(Cl)cc1", "values": [
      {"measurement": "scaled lipid accumulation score", "setting": "[1]", "value": "active: 0.881"}
    ]},
    {"smiles": "CC1=C(C/C=C(\\C)CCC[C@H](C)CCC[C@H](C)CCCC(C)C)C(=O)c2ccccc2C1=O", "note": "[Phylloquinone]", "values": [
      {"measurement": "scaled lipid accumulation score", "setting": "[1]", "value": "inactive: 0.106"}
    ]},
    {"smiles": "CC1=C(C/C=C(\\C)CCC[C@H](C)CCC[C@H](C)CCCC(C)C)C(=O)c2ccccc2C1=O", "note": "[Phytonadione]", "values": [
      {"measurement": "scaled lipid accumulation score", "setting": "library stock concentration: 4.4 mM", "value": "inactive: 0.012"}
    ]},
    {"smiles": "O=C(O)c1cc(I)ccc1NC(=O)[C@H](Cc1ccccc1)NCc1ccccc1", "values": [
      {"measurement": "scaled lipid accumulation score", "setting": "[2]", "value": "inactive: ≤ -0.009"},
      {"measurement": "scaled lipid accumulation score", "setting": "[1]", "value": "inactive: ≤ 0"}
    ]},
    {"smiles": "Cc1ncc(COP(=O)([O-])[O-])c(CN(CCN(CC(=O)O)Cc2c(COP(=O)([O-])O)cnc(C)c2O)CC(=O)O)c1O.[Mn].[Na+].[Na+].[Na+]", "values": [
      {"measurement": "scaled lipid accumulation score", "setting": "[1]", "value": "inactive: 0.072"}
    ]},
    {"smiles": "CCCCC[C@H](O)/C=C/[C@@H]1[C@@H](C/C=C\\CCCC(=O)NCCO)[C@@H](O)C[C@@H]1O", "note": "[11.beta.-Prostaglandin F2.alpha. Ethanolamide]", "values": [
      {"measurement": "scaled lipid accumulation score", "setting": "[3]", "value": "inactive: ≤ 0"}
    ]},
    {"smiles": "COc1ccc(C(=O)c2ccccc2O)c(O)c1", "note": "[Dioxybenzone]", "values": [
      {"measurement": "scaled lipid accumulation score", "value": "inactive: ≤ 0"},
      {"measurement": "scaled lipid accumulation score", "setting": "[1]", "value": "inactive: ≤ 0"}
    ]},
    {"smiles": "CC(C)(C)NC[C@H](O)COc1ccccc1C1CCCC1", "note": "[Penbutolol sulfate]", "values": [
      {"measurement": "scaled lipid accumulation score", "value": "inactive: 0.802"}
    ]},
    {"smiles": "CCCCCCCCCCCCCCCCOCC(COP(=O)([O-])OCC[N+](C)(C)C)OC", "note": "(centres undefined) [1-Hexadecyl-2-methylglycero-3 PC]", "values": [
      {"measurement": "scaled lipid accumulation score", "setting": "[3]", "value": "inactive: 0.043"}
    ]},
    {"smiles": "Nc1nc2[nH]cc(CCc3ccc(C(=O)N[C@@H](CCC(=O)O)C(=O)O)cc3)c2c(=O)[nH]1", "values": [
      {"measurement": "scaled lipid accumulation score", "setting": "[1]", "value": "inactive: ≤ 0"}
    ]},
    {"smiles": "COCCc1ccc(OCC(O)CNC(C)C)cc1", "note": "(centres undefined) [Metoprolol Tartrate]", "values": [
      {"measurement": "scaled lipid accumulation score", "setting": "[2]", "value": "inactive: ≤ 0"},
      {"measurement": "scaled lipid accumulation score", "setting": "[1]", "value": "inactive: 0.026"}
    ]},
    {"smiles": "COCCc1ccc(OCC(O)CNC(C)C)cc1", "note": "(centres undefined) [Metoprolol tartrate]", "values": [
      {"measurement": "scaled lipid accumulation score", "setting": "library stock concentration: 4.8 mM", "value": "inactive: ≤ -0.001"},
      {"measurement": "scaled lipid accumulation score", "setting": "library stock concentration: 7.5 mM", "value": "inactive: ≤ 0"},
      {"measurement": "scaled lipid accumulation score", "setting": "[1]", "value": "inactive: 0.013"}
    ]},
    {"smiles": "COCCc1ccc(OCC(O)CNC(C)C)cc1", "note": "(stereo not drawn) [(?)-Metoprolol (+)-tartrate]", "values": [
      {"measurement": "scaled lipid accumulation score", "setting": "[1]", "value": "inactive: ≤ -0.055"}
    ]},
    {"smiles": "CN(C(=O)c1c(O)c2ccccc2n(C)c1=O)c1ccccc1", "note": "[Linomide]", "values": [
      {"measurement": "scaled lipid accumulation score", "setting": "[1]", "value": "inactive: 0.031"}
    ]},
    {"smiles": "OCc1ccccn1", "values": [
      {"measurement": "scaled lipid accumulation score", "setting": "[1]", "value": "inactive: ≤ 0"}
    ]},
    {"smiles": "COc1ccc(CN2CCN(C(c3ccc(F)cc3)c3ccc(F)cc3)CC2)c(OC)c1OC", "values": [
      {"measurement": "scaled lipid accumulation score", "setting": "[1]", "value": "inactive: 0.282 and inactive: 0.257"}
    ]},
    {"smiles": "COc1ccc(CN2CCN(C(c3ccc(F)cc3)c3ccc(F)cc3)CC2)c(OC)c1OC", "note": "[Lomerizine HCl]", "values": [
      {"measurement": "scaled lipid accumulation score", "setting": "[2]", "value": "inactive: 0.067"},
      {"measurement": "scaled lipid accumulation score", "setting": "[1]", "value": "inactive: 0.386"}
    ]},
    {"smiles": "Nc1ncnc2c1c(-c1cccc(OCc3ccccc3)c1)cn2[C@H]1C[C@H](CN2CCCC2)C1", "values": [
      {"measurement": "scaled lipid accumulation score", "setting": "[2]", "value": "active: 1.09"}
    ]},
    {"smiles": "CC(C)Cc1ccc(C(C)C(=O)O)cc1", "note": "(centres undefined) [Ibuprofen]", "values": [
      {"measurement": "scaled lipid accumulation score", "setting": "[2]", "value": "inactive: ≤ 0"},
      {"measurement": "scaled lipid accumulation score", "setting": "library stock concentration: 9.7 mM", "value": "inactive: ≤ -0.006 and inactive: ≤ -0.001"},
      {"measurement": "scaled lipid accumulation score", "setting": "[1]", "value": "inactive: ≤ 0"}
    ]},
    {"smiles": "CC(C)Cc1ccc(C(C)C(=O)O)cc1", "note": "(centres undefined)", "values": [
      {"measurement": "scaled lipid accumulation score", "setting": "[1]", "value": "inactive: ≤ 0"}
    ]},
    {"smiles": "CC(C)Cc1ccc(C(C)C(=O)O)cc1", "note": "(centres undefined) [(?)-Ibuprofen]", "values": [
      {"measurement": "scaled lipid accumulation score", "setting": "[3]", "value": "inactive: 0.029"},
      {"measurement": "scaled lipid accumulation score", "setting": "[1]", "value": "inactive: ≤ -0.031"}
    ]},
    {"smiles": "COC1=CC(=O)C=C(OC)C1=O", "note": "[2,6-dimethoxyquinone]", "values": [
      {"measurement": "scaled lipid accumulation score", "setting": "[1]", "value": "inactive: 0.299"}
    ]},
    {"smiles": "CC(=O)O.N=C(N)N/N=C/c1c(Cl)cccc1Cl", "note": "[Guanabenz acetate]", "values": [
      {"measurement": "scaled lipid accumulation score", "setting": "[1]", "value": "active: 0.999"}
    ]},
    {"smiles": "O=C(O)CCCC[C@@H]1SC[C@@H]2NC(=O)N[C@@H]21", "note": "[Biotin]", "values": [
      {"measurement": "scaled lipid accumulation score", "value": "inactive: 0.1"},
      {"measurement": "scaled lipid accumulation score", "setting": "[1]", "value": "inactive: 0.074"}
    ]},
    {"smiles": "O=C(O)CCCC[C@@H]1SC[C@@H]2NC(=O)N[C@@H]21", "note": "[Biotin (Vitamin B7)]", "values": [
      {"measurement": "scaled lipid accumulation score", "setting": "[2]", "value": "inactive: ≤ 0"},
      {"measurement": "scaled lipid accumulation score", "setting": "[1]", "value": "inactive: ≤ -0.001"}
    ]},
    {"smiles": "CN1CCN(c2cc3c(cc2F)c(=O)c(C(=O)O)cn3-c2ccc(F)cc2)CC1", "values": [
      {"measurement": "scaled lipid accumulation score", "setting": "[1]", "value": "inactive: ≤ 0"}
    ]},
    {"smiles": "CN(C)CCCCCCOc1ccc(-n2ccnc2)cc1", "values": [
      {"measurement": "scaled lipid accumulation score", "setting": "[3]", "value": "inactive: 0.054 and inactive: 0.003"}
    ]},
    {"smiles": "C[C@@]1(O)CCOC(=O)C1", "note": "[Mevalonic-D, L acid lactone]", "values": [
      {"measurement": "scaled lipid accumulation score", "value": "inactive: ≤ 0"}
    ]},
    {"smiles": "COCC(=O)Nc1c(I)c(C(=O)NCC(O)CO)c(I)c(C(=O)N(C)CC(O)CO)c1I", "note": "(centres undefined) [Iopromide]", "values": [
      {"measurement": "scaled lipid accumulation score", "value": "inactive: ≤ 0"}
    ]}
  ]
}
